Article PMC4336329 (PLoS ONE, 2015)
Hit rate of the full screen: of about 310,000 compounds, about 2,200 (0.71%) showed an effect of 50% or more. The effect is printed as a negative number. The list shows a part of the results.

target: human ether-à-go-go-related gene (hERG) potassium channel (human, UniProt Q12809); assay: primary screen, population patch clamp on CHO cells stably expressing hERG
Sequence (Q12809 whole entry, looked up): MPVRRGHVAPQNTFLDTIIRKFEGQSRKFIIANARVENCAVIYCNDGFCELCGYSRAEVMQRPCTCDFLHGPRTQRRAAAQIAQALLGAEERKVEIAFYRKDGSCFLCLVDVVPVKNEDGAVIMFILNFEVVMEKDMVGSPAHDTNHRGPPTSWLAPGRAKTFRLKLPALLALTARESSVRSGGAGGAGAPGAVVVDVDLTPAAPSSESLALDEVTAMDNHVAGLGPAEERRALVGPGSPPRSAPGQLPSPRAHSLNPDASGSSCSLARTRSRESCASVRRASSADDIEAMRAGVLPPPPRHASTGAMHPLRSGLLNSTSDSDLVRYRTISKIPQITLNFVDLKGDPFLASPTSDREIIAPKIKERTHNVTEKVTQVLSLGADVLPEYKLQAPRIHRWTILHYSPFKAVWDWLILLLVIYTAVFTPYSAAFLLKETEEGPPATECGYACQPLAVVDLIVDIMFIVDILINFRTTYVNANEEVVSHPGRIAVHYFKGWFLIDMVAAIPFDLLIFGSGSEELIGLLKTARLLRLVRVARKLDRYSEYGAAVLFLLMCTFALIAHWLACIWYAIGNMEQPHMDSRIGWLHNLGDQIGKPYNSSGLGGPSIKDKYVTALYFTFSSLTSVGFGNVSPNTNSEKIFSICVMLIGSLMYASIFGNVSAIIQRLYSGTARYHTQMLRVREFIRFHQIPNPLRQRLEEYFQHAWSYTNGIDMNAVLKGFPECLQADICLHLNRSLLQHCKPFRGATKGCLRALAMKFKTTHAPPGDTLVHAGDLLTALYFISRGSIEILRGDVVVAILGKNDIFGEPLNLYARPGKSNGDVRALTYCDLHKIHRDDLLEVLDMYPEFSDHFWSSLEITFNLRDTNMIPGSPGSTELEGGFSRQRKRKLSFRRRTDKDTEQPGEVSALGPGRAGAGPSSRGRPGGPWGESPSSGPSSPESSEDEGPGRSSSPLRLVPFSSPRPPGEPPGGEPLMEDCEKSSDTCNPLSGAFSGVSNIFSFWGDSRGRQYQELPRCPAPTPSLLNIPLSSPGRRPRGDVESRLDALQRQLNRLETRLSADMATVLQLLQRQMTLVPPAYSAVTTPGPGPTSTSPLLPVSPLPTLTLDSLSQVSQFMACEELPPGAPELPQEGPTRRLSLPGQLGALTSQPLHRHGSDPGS

| SMILES | hERG current change (%, negative = inhibition) at 1uM [%] |
| --- | --- |
| C=CCN(CC(=O)O)S(=O)(=O)c1ccccc1C(F)(F)F | 10.8 |
| COc1ccc2c(CC(=O)N[C@@H](Cc3c[nH]c4ccccc34)C(=O)O)cc(=O)oc2c1 | 49.3 |
| Cc1cc(/C=N/O)c(C)n1-c1ccc(Br)cc1 | 5.4 |
| CCCCOC(=O)c1cccc(NC(=O)CC)c1 | -1.41 |
| Cc1ccc(C(=O)Nc2c(-c3cccs3)nc3cc(C)ccn23)cc1 | 6.61 |
| COc1ccc2nc(-c3ccc(Cl)cc3)cc(C(=O)O)c2c1 | 23 |
| Oc1c(Br)cc(/C=N/n2c(-c3ccccc3)n[nH]c2=S)cc1Br | 19.3 |
| C1=C(CCNCC2CCCCC2)CCCC1.Cl | -8.71 |
| CCC(C)NC(=O)Cn1nc(C(F)(F)F)c2c1CCCC2 (centres unmarked) | 12.3 |
| CCOC(=O)Cn1c(=O)oc2cc(S(=O)(=O)NCc3ccccn3)ccc21 | 2.39 |
| O=[N+]([O-])c1ccc(NCCNc2ccc(Cl)nn2)cc1 | -14.1 |
| O=C(NCCc1ccc(Cl)cc1)C1=CC=CN2CCS(=O)(=O)N=C12 | 0.873 |
| COc1ccc2[nH]c(=O)c(CN(C(=O)C3CCCO3)c3ccc(C)cc3)cc2c1 (centres unmarked) | 1.96 |
| COc1cccc(C(=O)Nc2cccc(C(C)=O)c2)c1 | 11.4 |
| Cc1cccc(NC(=O)Nc2cc(C)on2)c1 | 12 |
| Cc1ccc(-c2noc(C3CCCN(C(=O)c4cccc([N+](=O)[O-])c4)C3)n2)o1 (centres unmarked) | -20.7 |
| Nc1nnc(SCC(=O)Nc2ccc(S(=O)(=O)N3CCOCC3)cc2)s1 | -3.77 |
| O=[N+]([O-])c1ccccc1S(=O)(=O)NCCC1=CCCCC1 | 13 |
| CN(C)Cc1cnc2ccc(Cl)cn12 | -3.71 |
| O=c1c2ccccc2nnn1CSc1nc2sc3c(c2c(=O)n1CC1CCCO1)CCC3 (centres unmarked) | 5.04 |
| CCOCCCNCc1c(Cl)cccc1Cl | 7.62 |
| COc1ccc(NC(=O)CSCc2ccccc2C)cc1 | 10.5 |
| COc1cc(S(=O)(=O)NC2CCCCC2)ccc1F | 8.5 |
| CCC(C(=O)OCC(=O)c1ccc(OC)cc1OC)c1ccccc1 (centres unmarked) | 4.12 |

| SMILES | hERG current change (%, negative = inhibition) at 1uM [%] |
| --- | --- |
| CCOc1cc(/C=N/Nc2ncc(C)c(=O)[nH]2)ccc1O | 13.5 |
| CS(=O)(=O)c1ccc(C(=O)N(Cc2ccccc2)c2ccccc2)cc1 | 21.4 |
| CC(=O)C1=C(O)C(=O)N(c2ccccn2)C1c1ccc(Cl)cc1 (centres unmarked) | 23.9 |
| CC(=O)Nc1cccc(OCc2cnc(Cl)s2)c1 | 13.5 |
| CCOc1ccc(S(=O)(=O)NCCC(=O)NCC(C)(C)N2CCOCC2)cc1 | 11.5 |
| CN(C(=O)CSc1ncnc2sc3c(c12)CCC3)C1CCS(=O)(=O)C1 (centres unmarked) | 6.72 |
| O=C(c1ccc(S(=O)(=O)N2CCCC2)cc1)N1CCCc2ccccc21 | 5.56 |
| Cc1sc(-c2ccccn2)nc1OC(=O)c1ccc(Cl)c(Cl)c1 | 9.69 |
| COc1ccc(Cc2nn3c(-c4ccccc4OC)nnc3s2)cc1 | -16.6 |
| CCCOc1ccc(/C=C/C(=O)NC2CCCCC2)cc1OC | 12.6 |
| CC(=O)N1CCN(C(=S)c2ccc([N+](=O)[O-])cc2)CC1 | 5.81 |
| Cc1nc2ccccc2n1CC(O)Cn1c(C(F)(F)F)nc2ccccc21 (centres unmarked) | 11.8 |
| CCOC(=O)c1cnc2nc(C)nn2c1N | -8.31 |
| O=C(/C=C/c1ccc(Cl)cc1)c1ccc([N+](=O)[O-])o1 | 17.3 |
| O=C(CN1CCOCC1)NCCNS(=O)(=O)c1ccccc1 | 12.2 |
| CCN(CC)S(=O)(=O)c1ccc(C(=O)NCC(c2ccc(OC)cc2)N2CCOCC2)cc1 (centres unmarked) | 9.24 |
| Nc1cc(Cl)ccc1N1CCCCC1 | 10.3 |
| C/C(=N\Nc1ccc2nncn2n1)c1ccco1 | 14.4 |
| O=C(COC(=O)c1ccco1)Nc1ccc2[nH]c(=O)[nH]c2c1 | 5.03 |
| Cc1nnc(NCc2cccc(Cl)c2)c2ccccc12 | 0.0332 |
| CCOC(=O)c1cc(NC(=O)c2cccnc2)cc(C(=O)OCC)c1 | 5.43 |
| COc1ccc(C(=O)N2CCN(C(=O)CC(C)C)CC2)cc1OC | 10.1 |
| Cc1ccc(/C=N/n2c(C)nnc2C)o1 | 9 |
